Data: PubChem BioAssay AID651711 (Broad Institute, 2012)
Values joined by “and” are separate entries in the source; they are usually repeats but may differ in a detail not shown here. Identical values can stand only once. About 180 (0.051%) of roughly 350,000 compounds were called active. The shares of active, inactive and inconclusive entries below differ from those in the screen.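 Rule for the calls: active = mean replicate inhibition above about 25%, with every replicate also reaching it (limit read from the data, passing the limit was not always enough); inconclusive = only one of those two criteria met; inactive = neither criterion met.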 Some structures have more than one record in an assay (separate samples or runs), and their calls can disagree.

Each compound was assayed against Protein disulfide-isomerase A6 (Homo sapiens) (UniProt Q15084) (assay: inhibitors of ERp5-driven insulin aggregation, primary screen, biochemical, turbidity, absorbance 650 nm, single point (AID 651711)). Details: 90 min, at 9.99 µM, stronger effect = higher value.
Chain of UniProt Q15084 (Q15084 whole entry, looked up): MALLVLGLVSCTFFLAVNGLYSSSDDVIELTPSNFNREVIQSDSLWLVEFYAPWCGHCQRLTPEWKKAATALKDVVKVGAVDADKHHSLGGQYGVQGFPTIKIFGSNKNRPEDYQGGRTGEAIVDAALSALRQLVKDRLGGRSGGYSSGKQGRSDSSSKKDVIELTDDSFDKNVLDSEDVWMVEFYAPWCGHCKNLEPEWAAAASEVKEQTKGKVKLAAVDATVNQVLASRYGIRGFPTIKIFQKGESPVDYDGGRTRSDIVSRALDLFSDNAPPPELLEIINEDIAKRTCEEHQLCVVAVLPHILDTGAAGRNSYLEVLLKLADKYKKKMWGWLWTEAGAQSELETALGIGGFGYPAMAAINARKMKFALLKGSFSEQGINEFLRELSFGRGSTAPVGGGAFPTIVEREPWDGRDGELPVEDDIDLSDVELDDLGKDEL

SMILES	inhibition
CCN1CCN(CCOc2ccc(Br)cc2C)CC1	inconclusive: 32.1%
CSc1nc(C(=O)N2CCc3c([nH]c4ccccc34)C2c2ccccn2)cs1 (stereo unspecified)	inconclusive: 39.1%
Cc1ccc(C)c(SCC(=O)OCC(=O)Nc2ncc(C(F)(F)F)cc2Cl)c1	inconclusive: 40.2%
O=C(Nc1ccc(NC(=O)c2ccc(Cl)cc2Cl)cc1)c1cccs1	inconclusive: 26.7%
Cc1noc(C)c1NC(=O)Nc1ccc2c(c1)C(=O)N(C)[C@H]1CC[C@H](CC(=O)N[C@H]3CCN(Cc4ccccc4)C3)O[C@H]1CO2	inconclusive: 54.6%
O=C(COC(=O)c1ccc([N+](=O)[O-])s1)NCCc1ccccc1	inactive: -1.33%
CC(=O)N1c2c(cc(Br)cc2S(=O)(=O)N2CCCCC2)CC1C (stereo unspecified)	inconclusive: 28.2%
CCCCNC(=O)O[C@@H]1C[C@@H]2CCN3C(=O)CCC[C@H]([C@H]1CC)[C@H]23	inactive: -1.84%
Oc1ccc2ccccc2c1/C=C/c1ccc2c(Br)cc(Br)c(O)c2n1	inactive: -1.04%
C[C@H](CO)N1C[C@H](C)[C@H](CN(C)C(=O)Nc2ccccc2F)Oc2ncc(/C=C/c3ccccc3)cc2C1=O	inconclusive: 49.5%
COc1ccc2c3c(n(C)c2c1)[C@H](CO)N(C)CC31CCN(C(=O)CN2CCOCC2)CC1	inactive: 5.59%
COc1ccc(OC)c2sc(N(CCN(C)C)C(=O)c3cc(Cl)sc3Cl)nc12	inconclusive: 35.4%
COc1ccc(OCC(=O)Nc2ccc(S(=O)(=O)Nc3nc(C)cc(C)n3)cc2)cc1	inconclusive: 25.5%
CCCC(C)C(=O)Nc1ccc(S(N)(=O)=O)cc1 (stereo unspecified)	inconclusive: 36.8%
C[C@@H]1CN([C@@H](C)CO)C(=O)c2cc(NC(=O)Nc3cccc4ccccc34)ccc2O[C@@H]1CN(C)C(=O)Nc1ccccc1	inconclusive: 35.7%
CCc1cccc(CN2CCC(CNC(=O)Nc3ccc(Cl)cc3)CC2)c1	inconclusive: 42.8%
CN(CC(=O)Nc1cccc(F)c1)CC(=O)Nc1cccc2ccccc12	inconclusive: 48%
CSCCOC(=O)c1[nH]c2c(c1C)C(=O)CC(c1ccco1)C2 (stereo unspecified)	inconclusive: 27.7%
O=C(NCc1cccc(Cl)c1)c1ccc(-n2ccnc2)c2ccoc12	inactive: 0.239%
C[C@H](CO)N1C[C@H](C)[C@H](CN(C)C(=O)Nc2ccc(F)cc2)OCCCC[C@H](C)Oc2ccc(NS(=O)(=O)c3cccs3)cc2C1=O	inconclusive: 37.4%
CC(C)N=C(NS(=O)(=O)c1ccc(Br)cc1)c1ccc(Cl)cc1	inconclusive: 42.9%
CC(C)C#Cc1ccc([C@@H]2[C@H](CO)N3CCCCN(C(=O)c4ccc5c(c4)OCO5)C[C@@H]23)cc1	inconclusive: 44.8%
O=C(CSc1ccc(-c2ccccc2)nn1)c1ccccc1	inconclusive: 47.9%
CN1CCN(C(=O)c2cc3sc4ccccc4c3s2)CC1	inactive: -5.59%
CC(=O)N1N=C(C)CC1c1ccc(OCc2ccccc2)cc1 (stereo unspecified)	inconclusive: 34.3%
COCCCNCCCCOc1ccc(Br)cc1Cl	inconclusive: 37.5%

SMILES	inhibition
Cn1cccc1CC(=O)N/N=C/C=C/c1ccco1	inconclusive: 35.1%
CC(C)CC#Cc1ccc2c(c1)O[C@@H](CN(C)C(=O)c1ccccn1)[C@@H](C)CN([C@@H](C)CO)S2(=O)=O	active: 45.3%
COC(=O)c1sc(N2CCN(c3ccc(Cl)cc3)CC2)nc1N	inconclusive: 39.2%
CN(C)C(=O)C[C@H]1C[C@H]2c3cc(NS(C)(=O)=O)ccc3O[C@H]2[C@H](CO)O1	active: 68.2%
COCCCNC(=O)c1cc2c(-c3ccc(Cl)cc3)nn(C)c2s1	inactive: 4.76%
Cc1cc(C)cc(NC(=S)N(Cc2ccc(Cl)cc2)Cc2ccc(C(=O)O)cc2)c1	inactive: -7.6%
COc1cccc(C(=O)c2c[nH]c(C(=O)NCc3cccnc3)c2)c1	inactive: -2.56%
COc1ccc(NC(=O)N[C@@H]2CC[C@H](CC(=O)NC3CCCCC3)O[C@H]2CO)cc1	inactive: 4.12%
Cc1[nH]c2ccccc2c1/C=N/Nc1cccc(C(=O)O)c1	inconclusive: 40.2%
COc1ccc2c3c([nH]c2c1)[C@@H](CO)N(Cc1nccs1)CC31CN(C(=O)C2CCCC2)C1	active: 80.3%
NS(=O)(=O)c1ccc(NC(=O)N2c3ccccc3Sc3ccccc32)cc1	inconclusive: 43.9%
C[C@H](CO)N1C[C@H](C)[C@H](CN(C)Cc2cccc(F)c2)Oc2ncc(Br)cc2C1=O	inconclusive: 43.8% and active: 82.4%
Cc1c(N2C(=O)/C(=C\C3CC=CCC3)SC2=S)c(=O)n(-c2ccccc2)n1C (stereo unspecified)	inactive: 3.5%
COc1cccc(OCCNC(=O)c2cc([N+](=O)[O-])cc([N+](=O)[O-])c2)c1	inconclusive: 39.4%
O=c1[nH]c2cccc(F)c2n2cccc12	inconclusive: 42.7%
O=C(CCN1CCCCC1)NCC[C@@H]1CC[C@H](NS(=O)(=O)c2cccc(F)c2)[C@H](CO)O1	inactive: 3.34%
CC(C)(C)NCC(O)COc1ccccc1C1CCCC1 (stereo unspecified)	inactive: -0.704%
C=CCc1cc(C)ccc1OCC(O)CN1CCN(c2ccccc2)CC1 (stereo unspecified)	inconclusive: 48%
Cc1cc(Br)cnc1NC(=S)Nc1ccc(F)cc1F	inconclusive: 46.7%
Cc1c(C=O)c2ccccc2n1CC(=O)NC(C)c1ccccc1 (stereo unspecified)	inconclusive: 38.4%
COC(=O)c1ccc(CNC(=O)COC(=O)c2cc(Cl)nc(Cl)c2)cc1	inconclusive: 45.7%
C[C@H](NS(=O)(=O)c1c(Cl)cccc1Cl)C(=O)NNC(=O)COc1ccccc1F	inactive: 4.19%
CCCCn1c(N)c(N(CC(C)C)C(=O)c2ccc(S(=O)(=O)N(CC)c3ccccc3)cc2)c(=O)[nH]c1=O	inactive: -0.827%
COC(=O)c1ccc(N2C(=O)C3C4C=CC(CC4)C3C2=O)cc1 (stereo unspecified)	inconclusive: 43.8%
CCOC(=O)c1ccccc1N=N/C(C(C)=O)=C(/C)O	inconclusive: 37.6%
